# Hit rate of the full screen: of about 150,000 compounds, about 540 (0.36%) showed an effect of 50% or more. Some of the results follow.
# Tested on: Plasmodium falciparum
# Assay: Primary screen in NF54 nanoGlo assay, in single point, at 2uM, 72h; a lower Z score goes with more inhibition
# Format: functional, Erythrocyte
# Details: timepoint 72 hour
Structure (SMILES),% Inhibition,Z score
C[C@@]1(C(=O)NCc2ccc(C(=O)Nc3cccnc3)cc2)C=CCC1,0%,0.08
C[C@@H](Cc1ccco1)NC(=O)C1CCN(S(C)(=O)=O)CC1,12%,-2.22
CC1CCC(C(=O)N2CCCC2c2ccc3c(c2)OCCCO3)C2C(=O)N(c3ccccc3)C(=O)C12 (stereo unspecified),0%,0.04
COc1cc(F)cc2sc(NC(=O)c3c(C)c(C)n[nH]c3=O)nc12,-2%,0.49
Cc1ccc2c(Nc3cccc(Cl)c3C)c(C(=O)N3CCCC3)cnc2n1,-3%,0.5
CCOc1ccc(Cl)cc1CN(C)C(=O)NCC1CCN(C(C)=O)CC1,5%,-0.92
COC(c1ccc(Br)cc1)C(C)NC(=O)NCCF (stereo unspecified),-5%,0.85
CC1(C)CCC[C@@H]1NCc1nccc(N)n1,35%,-4.48
O=C(c1ccc2sccc2c1)N1CCN[C@@H]2CS(=O)(=O)C[C@@H]21,-16%,2.77
NCCOc1cccc(C(=O)NCC2=CCCCC2)c1,-6%,0.99
Cn1c(=O)[nH]cc(CC(=O)NCc2ccc3sccc3c2)c1=O,-9%,1.41
CC(C)(C)c1nc(C(=O)N2CCO[C@H](c3nccs3)C2)cs1,-2%,0.28
COc1ccc(CCC(=O)Nc2cc(-c3cccnc3)no2)cc1,-32%,3.11
C#CCNC(=O)c1ccc(=O)n(Cc2c(C)nc3ccccn23)c1,-29%,2.89
CCOc1ccc(CCNC(=O)c2nn(-c3ccc(F)cc3)c(=O)n(C)c2=O)cc1OCC,-18%,1.63
CC(C)Cc1nc2cc(NS(=O)(=O)N(C)C)cc(C(=O)NCCN3CCOCC3)c2n1C,-12%,1.7
O=C(c1cccs1)N1CCOC[C@H]1c1ncn(CC(F)(F)F)n1,3%,-0.61
COC(=O)c1ncccc1N(C)Cc1cccc(OC)c1,10%,-1.38
O=C1[C@@H]2[C@H](Cc3ccccc3)N[C@]3(C(=O)Nc4ccccc43)[C@@H]2C(=O)N1c1ccc(F)cc1,13%,-1.68
CCn1cnnc1-c1cccc(NS(=O)(=O)C[C@H]2CCCCO2)c1,-4%,0.58
CCCNc1ncc(CN(C)Cc2ccon2)cn1,2%,-0.29

Structure (SMILES),% Inhibition,Z score
CCN1CCN(c2c(CN(CC(C)C)C(=O)Cc3ccc(F)cc3)c(C)nn2-c2cccc(F)c2)CC1,-1%,0.12
Nc1nc(N2CCC[C@H](CNC(=O)c3ccc(Cl)cn3)C2)cc2nncn12,-4%,0.55
COc1ccc(CNC(=O)[C@@H]2CC(=O)c3cc(Cl)ccc3O2)cc1,27%,-3.01
OC12CCCCC1[C@H](c1ccc3c(c1)OCO3)NCC2 (stereo partly specified),-1%,0.08
COc1ccccc1N1CCN(C(=O)c2cc3c(-c4ccc(Cl)cc4)nn(C)c3s2)CC1,0%,0.06
Cc1cc(NC(=O)c2ccn(C)c(=O)c2)ncc1Br,-13%,2.5
CCOc1ccccc1-c1nccn1CCn1cccn1,-19%,1.74
O=C(NC[C@H]1CCN(Cc2c[nH]cn2)C1)c1cccc2c1NCCC2,-1%,0.23
COCCCNC(=O)N1CCCCCCn2c(nnc2-c2ccc(F)cc2)CC1,-10%,1.38
Cc1ccc(-c2ccc3nc[nH]c(=O)c3c2)o1,-17%,2.86
Cc1nc2c3ccccc3nc(N3CCN([C@@H](C)CO)CC3)n2n1,2%,-0.39
Nc1[nH]nc(C(=O)N2CCc3[nH]c(-c4ccccc4)nc3C2)c1Cl,1%,-0.26
CCc1cc(N2CCc3sc(C(N)=O)cc3C2)n2nccc2n1,2%,-0.39
COCC(=O)N1CCN(C(=O)c2c(C)c(C3CC3)nc3ccc(Br)cc23)CC1,-15%,2.67
O=C1CCC(=O)N1CC1CN(S(=O)(=O)c2cccc(Cl)c2)C1,-18%,2.04
Cc1cc(F)ccc1NC(=O)c1ncoc1-c1ccco1,-7%,0.66
CC(CN1CCN2C(=O)NCC2C1)c1cccc(Cl)c1 (stereo unspecified),-6%,0.57
CN(Cc1ccc(F)cc1)C(=O)c1ccc2nc(-c3ccccc3)cn2c1,-6%,1.28
CC[C@H](C)NC(=O)c1c(O)c2cccc3c2n(c1=O)CCC3,-14%,1.27
CN1CCCCCC1=Nc1nc(-c2ccccc2)cs1,1%,-0.19
CCOc1ncccc1C(=O)N1C[C@@H]2CC[C@H]1CN(Cc1ccccc1)C2,-4%,0.81

Structure (SMILES),% Inhibition,Z score
CCCCOCC(=O)N1CCC[C@@]2(CCC(=O)N(Cc3cnc(C)cn3)C2)C1,10%,-1.28
COc1cccc(C(=O)N2CC[C@]3(OC)CC[C@@H](OC)C[C@H]23)c1C,1%,-0.12
O=C(CCNc1ccc2nnnn2n1)Nc1ccc(Br)cc1,-33%,3.88
COc1ccc(CNC(=O)N2CCC[C@H](Oc3nccnc3C#N)C2)cc1,-14%,2.46
CNC(=O)c1cccc(NC(=O)N[C@H]2CCCc3sccc32)n1,-2%,0.35
COc1ccc(-c2cnn3c(C)cc(C)nc23)cc1S(=O)(=O)Nc1ccc(C(C)C)cc1,7%,-0.67
CC1(C)CCC(C)(NC(=O)c2oc(C3CC3)nc2C(F)F)CC1,-10%,1.13
Cc1cnn(C)c1CN1CCC(F)(c2ccccc2Cl)CC1,-11%,1.83
Cc1ccc(NC(=O)[C@H](C)n2nc(-c3ccc(C)cc3)cc(NC(=O)c3ccccc3)c2=O)cc1,0%,-0.05
CN(c1ncnc2[nH]cnc12)C1CCCCC1,6%,-1.1
O=C(NC1CCS(=O)(=O)CC1)c1cccnc1OCc1ccccc1F,-11%,1.37
O=C(COc1ccc(Cl)cc1N1C(=O)C2CCCCC2C1=O)c1ccc(Cl)cc1 (stereo unspecified),6%,-0.72
COCCN(CC1CN(Cc2sccc2C)CC1c1cccc(F)c1)C(=O)C(C)C (stereo unspecified),-10%,1.74
CCN(Cc1nc(C(N)=O)no1)Cc1c(F)cccc1Cl,-6%,1.04
Cc1ccc(S(=O)(=O)NCc2c(O)nc3ccc(Cl)cc3c2-c2ccccc2)cc1,1%,-0.22
FC(F)(F)Cc1nnc(NCc2ccc3c(c2)OCCO3)s1,-16%,1.41
O=C(CNC1(Cc2ccccc2)CCCC1)N1CCOCC1,-11%,1.26
CC(C)(O)C#Cc1ccc([C@H]2N[C@@H](CO)[C@H]3CN(c4ccccc4)C[C@H]32)s1,-7%,1.36
c1ccc(-c2nc([C@@H]3COCCO3)n(-c3cccc4cccnc34)n2)cc1,-6%,1.11
Cc1cc(C(=O)N2CCC3(CC2)CC(=O)N(Cc2ccc(F)c(F)c2)C3)[nH]n1,4%,-0.5
CCN(CC)C(=O)Nc1ccc(S(=O)(=O)NCCO)cc1,-12%,2.3

Structure (SMILES),% Inhibition,Z score
CCn1ncc(C2=NO[C@H](C(=O)Nc3ccc(F)cc3F)C2)c1C,6%,-0.7
COc1cccc2c1OCCCN(C(=O)CCc1scnc1C)C2,-13%,2.36
Cc1ccc(N2CCCC2=O)cc1NC(=O)N1Cc2nc(C)n(C)c(=O)c2C1,-10%,1.28
O=S1(=O)CC(O)C(N2CCC(c3ccccc3)CC2)C1 (stereo unspecified),6%,-0.65
CC(C)[C@@H](CO)NC(=O)NCc1cc2c(s1)CCC2,-8%,0.72
CC[C@H]1CN(CCC(=O)NCCc2ccco2)Cc2ccc(Cl)cc2O1,0%,-0.03
COC(=O)C1C2CCC(C2)C1NC(=O)COC1CCCC1 (stereo unspecified),5%,-0.84
COC1CS(=O)(=O)CC1NC(=O)NC(C)C1Oc2ccccc2C1C (stereo unspecified),-6%,1
COc1ccccc1C(CC(C)C)NC(=O)N(C)C1CCOC1 (stereo unspecified),6%,-0.58
C[C@@H](C(=O)N1CCCCCC1)N1CCc2onc(-c3ccccc3)c2C1,-2%,0.39
Cc1n[nH]c(C)c1[C@H](C)n1cc(-c2cc(CC(C)C)[nH]n2)nn1,-8%,1.56
CN1[C@@H](C(=O)O)C[C@@H](C(=O)NCc2ccoc2)[C@H]1c1ccccc1F,4%,-0.79
COC(=O)c1cccc(-c2nccn2CCc2cccc(F)c2)n1,-12%,1.56
CC(C)C[C@](C)(NCc1cc(C#N)ccc1F)C(N)=O,11%,-1.3
O=C1CN(Cc2nc(-c3ccccc3)nn2C2CCCCC2)CCN1,-7%,1.19
CC(=O)Nc1ccc(C(=O)N[C@H]2CCC[C@H]2F)nc1,-3%,0.31
O=S(=O)(Nc1c(Cl)ccc2nsnc12)c1ccc(Cl)s1,5%,-0.54
Cc1nc(NCc2ccc(N3CCNC(=O)C3)cc2)nc(C)c1CC(C)C,5%,-0.6
O=C(CN1CCN(c2ccc3c(c2)OCO3)C1=O)Nc1ccc(OC(F)(F)F)cc1,4%,-0.61
Cn1cc(S(=O)(=O)NCC2(OCCO)CCCC2)cn1,-14%,1.55
